Source: PubChem BioAssay AID485344 (National Center for Advancing Translational Sciences (NCATS), 2010)
About 6,900 (2%) of roughly 340,000 compounds were called active. Rule as the data show it: active = inhibition above about 30%; inactive = below that, where a call was filed. Only a part is listed here, and it is no random draw. Entries without a call were filed so in the source.

Molecular target: D(2) dopamine receptor (Homo sapiens) (UniProt P14416)
Assay: HTS Assay for Allosteric Antagonists of the Human D2 Dopamine Receptor: Primary Screen for Antagonists; also: 0% is about no effect
Conditions: HEK293 TREx D2 cells, calcium flux, dopamine EC80; at 10 µM; stronger effect = higher value
Procedure, shortened: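 Dopamine at EC80 is the agonist stimulus; test compounds precede it by 180 s. Calcium flux read kinetically in a force-coupled, inducible HEK293 T-REx D2 cell line.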

Sequence of UniProt P14416 (P14416 whole entry, looked up): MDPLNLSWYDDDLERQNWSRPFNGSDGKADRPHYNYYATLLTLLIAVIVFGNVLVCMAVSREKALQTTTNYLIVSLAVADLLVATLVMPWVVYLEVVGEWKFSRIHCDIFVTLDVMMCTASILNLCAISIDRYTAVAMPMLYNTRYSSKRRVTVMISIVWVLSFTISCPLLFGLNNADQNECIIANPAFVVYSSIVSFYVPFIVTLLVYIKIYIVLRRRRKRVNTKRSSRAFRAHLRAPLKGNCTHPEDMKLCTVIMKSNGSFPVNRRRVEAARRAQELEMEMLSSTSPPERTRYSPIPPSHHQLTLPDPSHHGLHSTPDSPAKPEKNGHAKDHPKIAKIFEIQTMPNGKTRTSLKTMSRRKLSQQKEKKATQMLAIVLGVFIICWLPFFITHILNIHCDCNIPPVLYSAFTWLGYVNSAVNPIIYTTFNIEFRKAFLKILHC

SMILES	inhibition
COC(=O)c1ccc2c(c1)N(Cc1ccccc1)C(=O)c1ccccc1S2(=O)=O	0.571%
COc1ccc(Cn2c(C(=O)O)c(CNC3CCCCC3)c3ccc(C)cc32)cc1	5.17%
COc1ccc(Cl)cc1NC(=O)CN1Cc2ccccc2C1=O	-6.31%
Cc1nc(S(=O)(=O)N2CCN(c3ccccc3F)CC2)cn1C	19.4%
CCCNC(=O)C(Cc1ccccc1)NS(=O)(=O)c1ccc2c(c1)c(=O)n(C)c(=O)n2C (stereo not drawn)	3.47%
CCOc1ccc(C(=O)Nc2ccc3c(c2)OCCO3)cc1Br	11.6%
O=C(CN1CCN(Cc2ccccc2Cl)C1=O)NCCc1ccc(Cl)cc1	18%
COc1cc(NS(=O)(=O)c2ccc(-c3cc(C)no3)cc2)cc(OC)c1	0.718%
Cc1ccc(-c2csc3ncnc(Nc4ccc(C(=O)O)cc4)c23)cc1	19.2%
COc1ccccc1-c1nc2cc(NC(=O)c3ccccc3Cl)ccc2o1	-3.77%
CCc1ccc(S(=O)(=O)c2nnn3c2nc(NCc2ccccc2)c2cc(Cl)ccc23)cc1	-13.1%
O=C(Nc1ccc(Cl)cc1)c1cc(S(=O)(=O)NC2CCCCCC2)ccc1F	4.98%
COc1ccc(NC(=S)N2CCC(N(C)CC3CCCO3)CC2)cc1 (stereo not drawn)	active: 30.4%
CCN1C(=O)C(Cc2nc3ccccc3c(=O)n2C)c2cc(C)ccc21 (stereo not drawn)	-12.3%
COc1ccc(C(=O)Nc2nc3c(s2)Cc2cc(OC)ccc2-3)cc1	-1.99%
COc1ccc(NC(=O)CSc2oc(-c3ccco3)nc2S(=O)(=O)c2ccccc2)c(OC)c1	0.335%
Cc1ccccc1NCc1nc2ccccc2n1CCOc1ccccc1	-5.14%
OC(CNCC1COc2ccccc2O1)COCc1cccs1 (stereo not drawn)	active: 30.8%
CCN1C(=O)c2ccccc2Sc2ccc(NC(=O)c3ccc(C#N)cc3)cc21	14.2%
CN(C(=O)Cn1nnc(-c2ccc(S(C)(=O)=O)cc2)n1)c1ccccc1	-0.474%
COc1ccc(OC)c(NC(=O)N2CCN(Cc3nc4ccc(C)cc4o3)CC2)c1	16.5%
COc1ccc(CCNc2nc3cc(OC)c(OC)cc3c3nc(-c4cccnc4)nn23)cc1OC	7.54%
COc1ccccc1-c1cc(C(=O)N/N=C/c2ccoc2)c2ccccc2n1	active: 79.1%
COc1ccc(-c2cn3c(n2)sc2cc(C(=O)Nc4ccc(C)cc4C)ccc23)cc1	8.16%
O=S(=O)(c1ccccc1)c1nc(-c2ccccc2F)oc1N1CCOCC1	11.5%

SMILES	inhibition
COc1cc2ccccc2cc1C(=O)Nc1ccc2oc(-c3cccc(C)c3)nc2c1	-4.25%
COc1ccccc1N1CCN(CCCn2c(=S)[nH]c3ccccc3c2=O)CC1	active: 82.4%
CCOc1ccc(NC(=O)CCSc2nc(-c3ccc4c(c3)OCO4)cc(C(F)(F)F)n2)cc1	5.09%
COc1ccc(-n2c3c(cc(-c4nc(-c5ccc(Cl)cc5)cs4)c2=O)C(=O)CC(C)(C)C3)cc1Cl	-6.2%
CCOC(=O)CSc1nc2c(sc3ccccc32)c(=O)n1Cc1ccc(OC)cc1	-12.8%
Nc1c(C(=O)c2ccccc2)sc(Nc2ccc(Cl)c(Cl)c2)c1C(=O)Nc1ccccc1	16%
Cc1ccc2c(c1)N(C(=O)N1CCC(C(=O)NCc3ccccc3F)CC1)CC(C)O2 (stereo not drawn)	-26.7%
N#Cc1ccccc1OCC(=O)N1CCN(c2ccccc2F)CC1	-0.954%
Cc1ccc(Cl)cc1NS(=O)(=O)c1ccc(N2CCCCS2(=O)=O)cc1	-6.49%
Cc1nc(-c2ccc(F)cc2)sc1CCNC(=O)c1ccc(C(C)(C)C)cc1	0.279%
Cc1ccc(NC(=O)Cn2c(=O)n(Cc3ccccc3)c(=O)c3c2c2cc(C)ccc2n3C)cc1	-2%
CC(=O)Nc1cccc(-c2cn3cccnc3n2)c1	-9.31%
CCCN1CCC(N(CCc2ccccc2)Cc2ccccc2)CC1	active: 39.5%
Cc1ccc(C(=O)NCC(c2cccnc2)N2CCc3ccccc3C2)cc1C (stereo not drawn)	-2.71%
CCOc1ccc(C(=O)c2c(N)c(-c3nc(-c4ccc(OCC)cc4)cs3)c3ccccn23)cc1	0.602%
CCOC(=O)N1CCN(C(=O)Cn2ncc3c4ccccc4n(Cc4ccc(F)cc4)c3c2=O)CC1	-2.36%
COc1ccccc1-c1nnc(C2CCN(S(=O)(=O)c3ccc(F)c(C)c3)CC2)o1	4.83%
O=C(COc1ccc(F)cc1)Nc1ccc(Cl)c(-c2nc3ccccc3[nH]2)c1	-3.21%
Cc1noc(C)c1S(=O)(=O)NCCc1csc2nc(-c3ccc(Cl)cc3)nn12	-22.4%
CCOC(=O)c1c(NC(=O)COc2ccc(Br)cc2)sc(C(C)=O)c1C	-4.08%
CCCCc1nn2c(=O)cc(COC(=O)c3ccccc3NC(=O)c3cccc(C)c3)nc2s1	-14.7%
Cc1cccc(NC(=O)c2c(C)oc3ncnc(N4CCCCC4)c23)c1C	-5.22%
O=C(N/N=C/c1cn(-c2ccccc2)nc1-c1cc2ccccc2o1)c1c[nH]c2ccccc12	active: 34.3%
CCOC(=O)NC(=O)/C(C#N)=N\Nc1cccc(Cl)c1	active: 38.1%
Cc1nc2ncnn2c(C)c1CCC(=O)NCc1cccc(Cl)c1	-7.97%

SMILES	inhibition
Cc1nn(-c2ccccc2)c2sc(C(=O)Nc3cccc(Br)c3)cc12	-7.77%
Cc1ccc(NC(=O)c2cc(S(=O)(=O)N3CCCCC3)c[nH]2)cc1F	-8.01%
COc1ccc(C2C=C(c3ccccc3)Nc3nc(NC(=O)/C=C/c4ccc(Cl)cc4)nn32)cc1 (stereo not drawn)	-8.28%
O=C(c1ccc(S(=O)(=O)Nc2ccccc2F)cc1)N1CCCC1	active: 50.6%
CC(CCc1ccccc1)N1CCN(Cc2ccccc2)CC1 (stereo not drawn)	active: 60.7%
O=C(c1ccc(Br)o1)N1CCC(Cc2ccccc2)CC1	active: 49.1%
Cc1cc(C)cc(NC(=O)C/C(N)=N/O)c1	active: 71.5%
COc1ccccc1NC(=O)C1=C(C)Nc2nc(SCc3cccc(F)c3)nn2C1c1ccc(C(=O)O)cc1 (stereo not drawn)	-18.7%
COc1cccc(CNC(=O)c2cc3ccc4cccnc4c3[nH]2)c1	0.928%
COc1ccccc1N1CCN(C(=O)c2cc3c(=O)oc4ccccc4c3s2)CC1	4.72%
CC1CCN(CCOCCOc2ccc(Cl)cc2Br)CC1	active: 68.6%
O=C(CSc1nc2c(cnn2-c2ccc(F)cc2)c(=O)[nH]1)Nc1ccccc1C(F)(F)F	13.9%
CCOc1ccc(/C=C2\CCC(C3CCCC3)C2=O)cc1 (stereo not drawn)	active: 37.4%
CCOC(=O)C1CCN(C/C=C/c2ccccc2[N+](=O)[O-])CC1	active: 48.4%
CCC(=O)N1CCc2cc(S(=O)(=O)CCC(=O)NCc3ccc(OC)cc3)ccc21	4.21%
O=C(NCCNC1CCC(c2ccccc2)CC1)c1ccc(F)cc1 (stereo not drawn)	active: 84.6%
CCCCn1c(=O)nc2n(-c3ccc(F)cc3)c3ccccc3cc-2c1=O	7.27%
COC(=O)c1sccc1NC(=O)Nc1ccc(Cl)c(Cl)c1	active: 43.9%
CC(Sc1nc2c([nH]c3ccccc32)c(=O)n1-c1ccccc1)c1ccccc1 (stereo not drawn)	7.39%
Cc1ccc(-c2cc(C(F)(F)F)n3ncc(-c4ccc(Cl)cc4)c3n2)cc1	-9.94%
CCOC(=O)C1CCN(C(=O)c2ccc3c(c2)N=C(CC)c2cc(C)ccc2S3)CC1	-5.35%
Cc1cccc(-c2nc(SCC(=O)N(C)c3ccccc3)c3c(=O)n(C)c(=O)n(C)c3n2)c1	-4.92%
O=C(c1ccco1)N1CCN(C(=O)c2cnn(-c3cccc(F)c3)c2C2CCNCC2)CC1	5.4%
CCCN1C(=O)C2(c3ccccc31)c1c(oc3ccccc3c1=O)C(=O)N2CCCOC(C)C (stereo not drawn)	11.3%
O=C(O)c1ccc(C2Nc3ccccc3-c3nnc(SCc4ccc(Cl)cc4)nc3O2)cc1 (stereo not drawn)	-7.28%

SMILES	inhibition
CCc1ccc2[nH]c(=O)c(C(c3nnnn3Cc3ccccc3)N3CCOCC3)cc2c1 (stereo not drawn)	active: 36.4%
Cn1c(=O)cc(SCC(=O)N2CCN(c3ccccc3)CC2)c2ccccc21	-19.6%
COc1cccc(C(=O)Nc2ccc(C(=O)OCc3cc(=O)n4nc(C5CC5)sc4n3)cc2)c1	3.57%
COc1cc(OC)c(NC(=O)N2CC=C(c3c[nH]c4ccccc34)CC2)cc1Cl	-2.02%
COc1ccccc1OCc1nc(-c2cccc(C)c2)no1	8.43%
COc1ccc(/C=C(/NC(=O)c2cccc([N+](=O)[O-])c2)C(=O)O)cc1OC	active: 55.6%
CC1CCN(C(=O)C(C)Sc2nc(-c3ccccc3)cc(C(F)(F)F)n2)CC1 (stereo not drawn)	0.869%
COc1ccc(OC)c(NC(=O)c2c(C)oc3ncnc(N4CCOCC4)c23)c1	1.99%
O=C(Cn1c(=O)n2nc(-c3cccc(F)c3)nc2c2ccccc21)N1CCN(c2ccccc2F)CC1	18.7%
O=C(c1cccc(Cl)c1)N1CCC(c2nc3ccccc3o2)CC1	-11.4%
CC(C)CCNC(=O)C1CCC(CNS(=O)(=O)c2ccc(Cl)cc2)CC1 (stereo not drawn)	active: 34.2%
Cc1ccc(C(=O)NC2(C(F)(F)F)N=C(c3ccccc3)N(C3CCCCC3)C2=O)cc1 (stereo not drawn)	-9.14%
COc1ccc(CNC(=O)c2cn(-c3cccc(OC)c3)c(=O)c3ccccc23)cc1	-11.7%
COc1ccc(C(=O)NCC(c2ccc3c(c2)OCO3)N2CCOCC2)cc1OC (stereo not drawn)	9.78%
CCOC(=O)c1c(C)c(-c2ccccc2)n(CC(=O)Nc2cccc(C)c2C)c1C	-14.6%
CC(=O)Nc1ccc(Nc2ncnc3sc4c(c23)CCCC4)cc1	10.8%
COc1ccc(Br)cc1S(=O)(=O)n1c([N+](=O)[O-])cnc1C	active: 34%
CCn1c(CC2C(=O)N(C)c3ccc(Br)cc32)nc2ccccc2c1=O (stereo not drawn)	-19.1%
Cc1cccc(C(=O)N2CCc3cc(CNS(=O)(=O)c4cccs4)ccc32)c1	-3.06%
Cc1ccc2nc(N(Cc3cccnc3)C(=O)CCOc3ccccc3)sc2c1	12.7%
CCc1cc2c(cc3c(=O)n(CC(=O)NCCOC)nc(CC)n32)s1	4.73%
Cc1ccc(C)c(CNC(=O)c2sc3ncnc(N(C)C4CCCCC4)c3c2C)c1	7.4%
COc1ccc(-c2cc3ccc(O)c(CN4CCCC4)c3oc2=O)cc1OC	-6.18%
